{
  "source": "PubChem BioAssay AID1671193",
  "about": "(National Center for Advancing Translational Sciences (NCATS), 2021)",
  "note": "Hit rate of the full screen: of about 150,000 compounds, about 180 (0.12%) were called active. The shares of active, inactive and inconclusive entries below differ from those in the screen. Calls come from the whole dose curve; as a rule, active = well fitted cell-killing curve with a large enough effect; inconclusive = small, poorly fitted or top-dose-only effect, or effect the other way; inactive = flat fitted curve, though single readings scatter. Potencies of inconclusive entries are doubtful fits and often do not repeat. Potency is the fitted concentration of half-maximal effect; tags give direction and shape of the fitted curve.",
  "data": [
    {"test": "GF-AFC viability counterscreen for inhibitors of alpha-synuclein gene (SNCA) expression; note: nearly all actives have a fitted effect of over 30% in size;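 for activity change, negative = cytotoxicity: 0% = DMSO-treated cells and -100% = medium-only wells without cells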", "settings": "HEK-293-SNCA-luc viability, GF-AFC fluorescence, 24 h; activity change, negative = cytotoxicity: at 57.1 µM (top of the series) unless noted", "how_it_was_run": "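HEK-293-SNCA-luc cells (1500/well) plated 24 h, then exposed 24 h to a dilution series; GF-AFC added 30 min at 37C, fluorescence 405/540 nm; normalised to medium-only and DMSO wells, Hill fit.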", "values": [
      {"compound": "CC1=C[C@@H](CNC(=O)Cn2cnnn2)[C@H](C(C)C)C[C@H]1Cc1nc2ccc(C)cc2[nH]1", "Potency": "inconclusive: 22.4 µM [cytotoxic, partial curve, poor fit]"},
      {"compound": "O=C(NCc1ccco1)c1cccc2c1CCN2C(=O)Nc1ccc(F)cc1", "activity change, negative = cytotoxicity": "inactive: -10.3%"},
      {"compound": "CC(C)OCCCN1C(=O)c2[nH]nc(-c3ccccc3O)c2C1c1cccc(OCc2ccccc2)c1", "note": "(centres undefined)", "Potency": "inconclusive: 17.8 µM [cytotoxic, partial curve, poor fit]"},
      {"compound": "O=C(Nc1cccc(C(F)(F)F)c1)c1nc2c(o1)CCN(CC1CC1)CC2", "activity change, negative = cytotoxicity": "inactive: 5.01% [at 87.6 µM]"},
      {"compound": "c1ccc(-c2ccc(N3CC4(CCNCC4)C3)cc2)cc1", "Potency": "active: 31.6 µM"},
      {"compound": "O=C1NCc2ccccc2CC12CCN(Cc1cc(F)ccc1O)C2", "note": "(centres undefined)", "activity change, negative = cytotoxicity": "inactive: 1.51%"},
      {"compound": "CC(C)C[C@@H]1N[C@H](C(=O)NC2CCC2)Cc2cn(Cc3ccccn3)c3cccc1c23", "Potency": "inconclusive: 35.5 µM [cytotoxic, single point]"},
      {"compound": "CCc1cc(=O)n(CC(=O)N2CCN(c3ccccc3OC)CC2)c(-c2ccccc2)n1", "Potency": "inconclusive: 39.8 µM [cytotoxic, single point]"},
      {"compound": "CCCSc1nnc2n(-c3cccc(C)c3)c(=O)c3c4c(sc3n12)CCCC4", "Potency": "inconclusive: 1.12 µM [cytotoxic, full curve, poor fit]"},
      {"compound": "CN(C)c1cccc(C(=O)N2CCN(C(=O)c3nnn4c3COC(c3ccc(Cl)cc3)C4)CC2)c1", "note": "(centres undefined)", "Potency": "inconclusive: 6.31 µM [cytotoxic, single point]"},
      {"compound": "COc1ccc(OC)c(Nc2c3c(nc4ccccc24)CCC3)c1", "Potency": "inconclusive: 17.8 µM [cytotoxic, partial curve, poor fit]"},
      {"compound": "CCS(=O)(=O)c1ncc(Cl)c(C(=O)N(Cc2ccccc2)c2ccc(OC)cc2)n1", "Potency": "inconclusive: 5.62 µM [cytotoxic, full curve, poor fit]"},
      {"compound": "CCOc1ccc2c(c1)c(=O)c(C(=O)c1ccc(C)cc1)cn2Cc1ccccc1OC", "Potency": "inconclusive: 5.01 µM [cytotoxic, partial curve, poor fit]"},
      {"compound": "CCN(CC)S(=O)(=O)c1ccc2c(c1)N(CC(=O)N(C)Cc1ccccc1)C(=O)CO2", "Potency": "inconclusive: 35.5 µM [cytotoxic, single point]"},
      {"compound": "O=C(C1COc2ccccc2C1)N1CCC(n2c(=O)[nH]c3ccccc32)CC1", "note": "(centres undefined)", "Potency": "inconclusive: 25.1 µM [cytotoxic, single point]"},
      {"compound": "CCCOCCNC(=O)c1c(C)noc1-c1ccc2c(c1)OCO2", "activity change, negative = cytotoxicity": "inactive: 7.27%"},
      {"compound": "Cn1cc(C(=O)NCc2ccc(Cl)cc2)c(=O)c2cc(S(=O)(=O)N3CCCCCC3)ccc21", "Potency": "inconclusive: 31.6 µM [rising, single point]"},
      {"compound": "COc1ccc(S(=O)(=O)N(CC(=O)N(C)Cc2ccccc2)c2ccc(Cl)cc2)cc1", "Potency": "inconclusive: 44.7 µM [cytotoxic, single point]"},
      {"compound": "O=S(=O)(Cc1ccccc1)N1CCC(Oc2ccc(-c3noc(C4CC4)n3)cc2)C1", "note": "(centres undefined)", "Potency": "inconclusive: 8.91 µM [rising, single point]"},
      {"compound": "COc1ccc(-c2ccnc3nc(CCc4ccc(OC)c(OC)c4)nn23)c(F)c1", "activity change, negative = cytotoxicity": "inactive: -5.46%"},
      {"compound": "Cc1ccc(NC2=N[C@H]3[C@@H](O)[C@H](O)C[C@H](C(=O)N(C)Cc4ccccc4)[C@H]3S2)cc1", "activity change, negative = cytotoxicity": "inactive: 4.33% [at 87.6 µM]"},
      {"compound": "CCOC(=O)C1CCN(C(=O)c2nc3sccn3c2-c2ccncc2)CC1", "Potency": "inconclusive: 11.2 µM [cytotoxic, partial curve, poor fit]"},
      {"compound": "CCC1CCCCN1CCCNC(=O)c1c(O)nc2c(C)cccn2c1=O", "note": "(centres undefined)", "Potency": "inconclusive: 3.16 µM [cytotoxic, full curve, poor fit]"},
      {"compound": "CN(C(=O)c1ccc(F)cc1C(F)(F)F)C1CCN(c2nnc(-c3ccnn3C)c3ccccc23)CC1", "Potency": "inconclusive: 15.2 µM [cytotoxic, full curve, poor fit]"},
      {"compound": "CCOc1ccccc1NC(=O)c1sc2nc(-c3ccc(OC)cc3)ccc2c1N", "Potency": "inconclusive: 2 µM [rising, full curve, poor fit]"},
      {"compound": "CC(C)CNC(=O)C1COC2(CCC(C)CC2)N1C(=O)c1cccc([N+](=O)[O-])c1", "note": "(centres undefined)", "Potency": "inconclusive: 2 µM [cytotoxic, partial curve, poor fit]"},
      {"compound": "COc1ccc(F)c(CN2CCCC3(CCN(c4cc(C)nc(N)n4)C3)C2)c1", "note": "(centres undefined)", "Potency": "inconclusive: 39.8 µM [cytotoxic, single point]"},
      {"compound": "Cc1cccc(N(C)C(=O)CN(C)S(=O)(=O)c2ccc3[nH]c4c(c3c2)CCCC4)c1", "Potency": "inconclusive: 20 µM [cytotoxic, partial curve, poor fit]"},
      {"compound": "COc1ccccc1Nc1ccnc(N2CCN([S+](=O)([O-])c3cccs3)CC2)n1", "Potency": "inconclusive: 11.2 µM [cytotoxic, partial curve]"},
      {"compound": "COCCN1Cc2ccc(Nc3ccc(OC)cc3)nc2C(C)(C(=O)NC(C)C)C1", "note": "(centres undefined)", "activity change, negative = cytotoxicity": "inactive: -14.3% [at 87.6 µM]"},
      {"compound": "Cc1ccccc1N1CCCN(Cc2cccc(CCN)c2)CC1", "Potency": "inconclusive: 14.1 µM [cytotoxic, partial curve, poor fit]"},
      {"compound": "COc1cc(NC(=O)c2nc3ccccc3nc2C)cc(OC)c1OC", "Potency": "inconclusive: 0.355 µM [cytotoxic, full curve, poor fit]"},
      {"compound": "COc1ccccc1CNC(=O)[C@@H]1Cc2c[nH]c3cccc(c23)[C@H](CC(C)C)N1", "Potency": "inconclusive: 56.2 µM [cytotoxic, single point]"},
      {"compound": "O=C(NC1CCCCC1)N1CCC(c2nc(C3CCOCC3)no2)CC1", "activity change, negative = cytotoxicity": "inactive: -9.44%"},
      {"compound": "Cc1ccc(CC(=O)N2CCC(c3n[nH]c(=O)n3-c3ccc(C)cc3)CC2)cc1", "activity change, negative = cytotoxicity": "inactive: -1.48%"},
      {"compound": "Cc1noc(C)c1CO[C@@H]1COCC[C@H]1NC(=O)c1cccc(=O)[nH]1", "activity change, negative = cytotoxicity": "inactive: -8.06%"},
      {"compound": "CC(C)C[C@@H]1N[C@H](C(=O)NCCOc2ccccc2)Cc2c[nH]c3cccc1c23", "Potency": "inconclusive: 39.8 µM [cytotoxic, single point]"},
      {"compound": "O=C(Cc1ccc(N(Cc2ccccc2)C(=O)c2ccco2)cc1)NCCc1ccccc1", "Potency": "inconclusive: 5.62 µM [cytotoxic, single point]"},
      {"compound": "COc1ccc(NC(=O)c2ccc3c(c2)C2(CCN(C)C2)CN3Cc2ccccc2)cc1", "note": "(centres undefined)", "activity change, negative = cytotoxicity": "inactive: 3.79% [at 87.6 µM]"}
    ]}
  ]
}
